Measurements taken from PubChem BioAssay AID1466 (National Center for Advancing Translational Sciences (NCATS), 2008).
About 10 (0.005%) of roughly 200,000 compounds were called active. The inconclusive results got no clear call from the source; some entries with a clear call stand among them for comparison. Calls come from the whole dose curve; as a rule, active = well fitted inhibition curve with a large enough effect; inconclusive = small, poorly fitted or top-dose-only effect, or effect the other way, or another doubt; inactive = no such curve, though single readings can be large or run the other way. Potencies of inconclusive entries are left out as doubtful fits.

Each compound was assayed against Lysosomal alpha-glucosidase (Homo sapiens) (UniProt P10253) (assay: qHTS Assay for Inhibitors of Human alpha-Glucosidase as a Potential Chaperone Treatment of Pompe Disease). Settings: purified human GAA, 4-MU-alpha-glucoside fluorescence; activity change, negative = inhibition: at 76.9 µM (top of the series) unless noted.
In short: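 Activity normalized between no-enzyme (basal) and enzyme-only wells. Conditions: 4 nM human enzyme, 400 uM fluorogenic substrate, citrate/phosphate pH 5.0 with Tween-20, 20 min room temperature, compounds up to 77 uM.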
Potency is the fitted concentration of half-maximal effect; tags give direction and shape of the fitted curve.
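Throughout, for activity change, negative = inhibition: plate controls were uninhibited enzyme wells for no effect and no-enzyme background for full effect.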

Structure (SMILES)	activity change, negative = inhibition	Potency
CCN(CC)S(=O)(=O)c1ccc(NC2c3ncccc3C(=O)N2Cc2ccccc2)cc1 (stereo not given)	inconclusive: 35.7% [activator]	
COC(=O)c1ccc(CSc2nc3sc(C(=O)O)c(C)c3c(=O)[nH]2)cc1		inconclusive [inhibitor, single point]
Cc1cccc2cc(CN(CCc3ccccc3)C(=O)N3CCOCC3)c3nnnn3c12	inconclusive: -16.5% [inhibitor]	
Cc1cc([N+](=O)[O-])cnc1NC(C)c1ccccc1 (stereo not given)		inconclusive [inhibitor, single point]
Cc1ccnc(NC(=O)CCCOc2ccccc2)c1	inconclusive: 15.5% [activator]	
CCCOc1ccc(C(=O)NC(=S)Nc2nc3ccc(C)cc3s2)cc1		inconclusive [inhibitor, partial curve]
O=C(CN1CCCc2ccccc21)N/N=C/c1ccccc1O		inconclusive [inhibitor, single point]
CCC1OC2(C)OC(=N)C1(C#N)C(C#N)(C#N)C2c1ccccc1 (stereo not given)		inconclusive [activator, partial curve]
Nc1ccccc1Oc1ccc2ccccc2c1		inconclusive [activator, full curve, poor fit]
NC(=O)CSc1nc(-c2ccccc2)c(-c2ccccc2)o1		inconclusive [inhibitor, single point]
COCCCn1c(=NC(=O)c2ccccc2)c(C#N)cc2c(=O)n3cccc(C)c3nc21		inconclusive [activator, partial curve]
C/C(=N\Nc1ncc(Cl)cc1Cl)c1ccc(N2CCOCC2)cc1	inconclusive: -16.1% [inhibitor]	
CCCN1CCC(NC(=O)CCc2nnc(Cc3cc(OC)ccc3OC)o2)CC1	inconclusive: 16.9% [activator]	
CN(C)C=NC1=NN(c2cccc(C(F)(F)F)c2)CC1		inconclusive [inhibitor, single point]
COc1ccccc1-c1cc(C(=O)N2CCCc3ccccc32)no1		inconclusive [inhibitor, single point]
CCC(C)(C)n1nnnc1C(c1cc2cc3c(cc2[nH]c1=O)OCO3)N1CCCCC1 (stereo not given)		inconclusive [activator, partial curve]
CCOc1nc2ccccc2cc1C=O		inconclusive [activator, partial curve, poor fit]
CC(C)N1CCC(=NNc2ccc([N+](=O)[O-])cc2S(=O)(=O)N2CCOCC2)CC1		inconclusive [activator, full curve, poor fit]
O=C(COC(=O)c1cc2c(s1)CCC2)Nc1ccc(F)cc1		inconclusive [inhibitor, full curve, poor fit]
C=CCc1cc(C)ccc1OCC(O)CN1CCN(c2ccccc2)CC1 (stereo not given)		inconclusive [inhibitor, partial curve]
COc1ccc(C(=O)N2CCCC(CCC(=O)NCc3ccc(F)c(F)c3)C2)cc1F (stereo not given)	inconclusive: 15% [activator]	
O=C(NC1CCCCC1)C(c1ccc2ncccc2c1)N(Cc1ccco1)C(=O)c1ccc2c(c1)OCCO2 (stereo not given)		inconclusive [inhibitor, single point]

Structure (SMILES)	activity change, negative = inhibition	Potency
CCCCNc1oc(-c2ccc(OC)cc2)nc1S(=O)(=O)c1ccccc1		inconclusive [inhibitor, partial curve]
CCCCNC(=O)CCC(=O)Nc1ccc2nc(N3CCC(C)CC3)cc(C)c2c1		inconclusive [activator, partial curve]
CCc1cc(C(=O)O)c(NC(=O)c2cc(OC)c(OC)c(OC)c2)s1	inconclusive: -16.1% [inhibitor]	
Cc1cc(C)cc(NC(=O)N2CCN(Cc3ccc4c(c3)OCO4)CC2)c1		inconclusive [inhibitor, full curve]
CCn1c(C)nc2cc(C(=O)N/N=C/c3ccc(O)c(O)c3O)ccc21		inconclusive [inhibitor, single point]
N#Cc1c(N2CCN(C(=O)c3ccco3)CC2)nc(-c2ccccc2)c2c1CCCC2	inconclusive: 18.1% [activator]	
CC(C)CCN(CCC(C)C)C/C(O)=C(\C#N)c1nc(-c2ccccc2)cs1		inconclusive [inhibitor, full curve, poor fit]
COc1ccc(-c2cc(C(=O)NCC3CCCO3)c3ccccc3n2)cc1 (stereo not given)		inconclusive [activator, single point]
Cc1cccc(C)c1N1CCN(c2n[nH]c(N)n2)CC1		inconclusive [inhibitor, full curve, poor fit]
COc1cc(/C=N/NC(=O)CCn2c3ccccc3c3ccccc32)ccc1O		inconclusive [inhibitor, partial curve, poor fit]
O=C(O)c1ccc(/C=N/NC(=O)c2cc(-c3ccc4c5c(cccc35)CC4)n[nH]2)cc1		inconclusive [inhibitor, partial curve]
CCOC(=O)C(=Cc1ccccc1OC)C(=O)OCC	inconclusive: -16.1% [inhibitor]	
CCCC1(C(=O)OC)NC(c2ccco2)C2C(=O)N(C)C(=O)C21 (stereo not given)	inconclusive: 9.48% [activator]	
COc1ccccc1NC(=O)CN(Cc1ccccc1)S(C)(=O)=O		inconclusive [inhibitor, partial curve]
COc1ccc(/C=C/c2cc(C(F)(F)F)[nH]c(=O)n2)cc1OC	inconclusive: 27.2% [activator]	
CCOc1ccc(N2C(=O)/C(=C/c3ccccc3OCC(=O)OC)N(CC(=O)OC)C2=S)cc1	inconclusive: 17.1% [activator]	
COc1ccc(C(=O)NCc2ccc(-n3cccc3)cc2)cc1OC	inconclusive: 15.4% [activator]	
O=c1c2sc3nc(N4CCOCC4)c4c(c3c2ncn1-c1ccccc1)CCCC4	inconclusive: 15.4% [activator]	
CC(C)(C)c1ccc(S(=O)(=O)Nc2ccccn2)cc1	inconclusive: 15.7% [activator]	
COCCCNC(=O)CC(=O)N/N=C\c1ccc(SC)cc1	inactive: 9.8%	
CCOc1ccc(/C=N/NC(=O)c2ccc(Cn3cc(Br)cn3)o2)cc1		inconclusive [inhibitor, single point]
O=C(O)c1cc(NCc2ccc3c(c2)OCO3)ccc1N1CCOCC1	inactive: -0.541%	

Structure (SMILES)	activity change, negative = inhibition	Potency
CCN(C(=O)COC(=O)c1c2c(nc3ccccc13)/C(=C/c1ccccc1)CC(C)C2)C1CCS(=O)(=O)C1 (stereo not given)		inconclusive [activator, partial curve, poor fit]
CCc1ccc(S(=O)(=O)Nc2cc(SCC(=O)O)c(O)c3ccccc23)cc1	inconclusive: 9.87% [activator]	
C=CCNc1nc(C)nc(OC)n1		inconclusive [inhibitor, single point]
COc1cc(CNCCN(C)C)ccc1OCc1c(F)cccc1Cl	inactive: 7.64%	
O=C(CN1C(=O)c2ccccc2C1=O)N1CCN(c2ccccc2)CC1		inconclusive [inhibitor, single point]
Cc1ccc(C(=O)N2CCCC(C(=O)c3cc(F)ccc3F)C2)s1 (stereo not given)		inconclusive [activator, partial curve, poor fit]
COc1ccc(S(=O)(=O)N2CCOCC2)cc1NC(=O)CN1CCC(Cc2ccccc2)CC1		inconclusive [inhibitor, partial curve, poor fit]
Nc1ccccc1N=Cc1ccc(-c2cccc(Cl)c2)o1		inconclusive [activator, full curve]
O=C(Nc1ccc(-c2nc3ccccc3[nH]2)cc1)c1cccc(N2C(=O)CCC2=O)c1		inconclusive [activator, partial curve]
CCOC(=O)CSc1ccc(S(=O)(=O)N2CCCC2)cc1[N+](=O)[O-]		inconclusive [inhibitor, partial curve, poor fit]
O=C(O)CC(=O)Nc1ccccc1C(=O)O		inconclusive [inhibitor, single point]
COc1ccccc1CNc1ncnc2c1nnn2Cc1ccccc1	inconclusive: -18.5% [inhibitor]	
Cn1c(=O)n(C)c2cc(S(=O)(=O)NCc3ccco3)ccc21		inconclusive [inhibitor, single point]
NC(=O)c1ccc(NC(=O)C2CCCO2)cc1 (stereo not given)	inconclusive: 16.3% [activator]	
CC1CCCC(C)N1C(=O)CSc1nnc(-c2cccs2)o1 (stereo not given)		inconclusive [inhibitor, single point]
Cc1cc(C(F)(F)F)nn1-c1nc(-c2ccco2)cc(C(F)(F)F)n1	inconclusive: -18% [inhibitor]	
O=C(O)c1ccc(-n2c(-c3ccccc3)n[nH]c2=S)cc1	inconclusive: -17.6% [inhibitor]	
COc1cccc(CN2CCN(c3ncccn3)CC2)c1		inconclusive [inhibitor, single point]
CC(C)Cc1nc(N2CCN(C(=O)c3ccco3)CC2)c(C#N)c2c1CCC2		inconclusive [inhibitor, single point]
O=C1N/C(=N\N=C\c2cccnc2)SC1Cc1ccc(SC(F)F)cc1 (stereo not given)		inconclusive [inhibitor, partial curve]
CCOc1ncccc1C(=O)Nc1cccc(Cl)c1Cl		inconclusive [inhibitor, single point]
